PubChem BioAssay AID1745847 (National Center for Advancing Translational Sciences (NCATS), 2022)
Among all 2,100 compounds or so, about 670 (32%) were called active. Inconclusive results, whose numbers are uncertain, are shown with a selection of clear calls. The call rests on the fitted dose curve; in most records, active means well fitted inhibition curve with a large enough effect; inconclusive means small, poorly fitted or top-dose-only effect; inactive means no such curve, though single readings can be large or run the other way. A potency beside an inconclusive call is a rough fit, not a confirmed value.

test: CMV-Luciferase Counterscreen for Inhibitors of ATXN expression; details: HEK-293 CMV-luciferase reporter, luminescence, 24 h; series mostly up to 57.5 µM; activity change, negative = inhibition: at the top concentration; further: nearly all actives have a fitted effect of over 55% in size
Text: PI: Daniel Scoles Ph.D. University of Utah School of Medicine, Salt Lake City, Utah MLPCN Grant: NS073009 Spinocerebellar ataxia type 2 (SCA2) is a multisystem neurodegenerative disease caused by a dominantly acting mutation leading to expansion of a polyQ domain in the ataxin-2 protein (ATXN2). SCA2 patients develop progressive ataxia and later lose function in other neuronal systems. Prominent parkinsonian signs develop in some patients. Like many neurodegenerative disorders, no symptomatic or disease-modifying treatments are known. The primary objective of the proposed research is to identify compounds inhibiting ATXN2 expression and to test them for efficacy in SCA2 mouse models. We have developed a cell-based assay paired with an in vivo mouse model using identical luciferase expression constructs. This approach takes advantage of an ATXN2-luciferase transgene, with the luciferase gene flanked by the upstream and downstream portions of the ATXN2 gene. Here we describe a 5-7 dose quantitative high thoroughput screen (qHTS) for compounds lowering ATXN2 expression. We screened the NIH Molecular Libraries Small Molecule Repository (MLSMR) and NCGC's mechanistically annotated (MIPE) and drug repurposing (NPC) collections of compounds for lowering expression of an ATXN2-luciferase reporter in HEK-293 cells. The assay is a multiplexed cell viability assay to ensure target reduction in the absence of cytotoxicity. Secondary qHTS assays included a CMV-luciferase reporter expressed in HEK-293 cells as well as a biochemical assay using recombinant luciferase to detect inhibitors of the reporter enzyme. Compounds that inhibit ATXN2 expression but is not cytotoxic were selected for confirmatory and secondary screens.
PROTOCOL TABLE (as described by Inglese J, Shamu CE and Guy RK. 2007) SEQUENCE No. (e.g., 1, 2, 3, etc.); PARAMETER (e.g., Cells, Incubation, Reagent, etc.); VALUE; DESCRIPTION. 1; Cells; 4 uL; white, solid bottom, 1536-well Greiner assay plate. 2; Incubation; 2 hr; 37 degree C in 5% humidified CO2. 3; Compounds; 23 nL; Kalypsis pintool (Wako USA) equipped with a 1536-well pin head. 4; Incubation; 24 hr; 37 degree C in 5% humidfified CO2. 5; Reagent; 1 uL; Gly-Phe-7-Amino-4-trifluoromethylcoumarin. 6; Incubation; 30 min; 37 degree C in 5% humidfified CO2. 7; Detection; Fluorescence; Viewlux plate reader (PerkinElmer). 8; Reagent; 3 uL; SteadyGlo luciferase solution (Promega). 9; Incubation; 5 min; room temperature. 10; Detection; Luminescence; ViewLux plate reader (PerkinElmer). NOTES (numbers refer to Sequence numbers above) 1. HEK-293 cells expressing CMV-luciferase reporter (designated as SC cells) were suspended in phenol-red free DMEM and dispensed in assay plates using a Multidrop Combi dispenser (Thermo Fisher Scientific). 2. Assay plates were incubated. Evaporation was prevented by covering assay plates with metal lids containing holes to allow gas diffusion. 3. Compounds were added in a dose response manner with the final concentrations of 57, 11.4, 2.28, 0.46, 0.091, 0.018, 0.0037 uM. Vehicle-only plates, with DMSO being pin-transferred to columns 5-48, were inserted uniformly at the beginning and the end of each library to monitor and record any shifts in assay performance. 5. 125 uM Gly-Phe-7-Amino-4-trifluoromethylcoumarin (MP Biomedicals) working concentration was used at a final concentration of 25 uM. 7. To assess cell viability; the assay plates were read using the ViewLux high-throughput CCD imager (PerkinElmer), wherein single end-point fluorescence measurement was acquired (excitation 405/10; emission 540/25 nm). 8. Detection reagent SteadyGlo Luciferase (Promega) was added to the assay plate. 10. Luminescence is then measured on the ViewLux imager equipped with a clear emission filter using a 2 sec exposure. […]
On the % scale 0 is the no-effect control and ±100 the full control effect; potency means the concentration at half of the fitted maximal effect; tags describe the fitted curve by direction and shape.

| SMILES | Potency | activity change, negative = inhibition |
| --- | --- | --- |
| CC(C)CNc1c2c(nc3ccccc13)CCC2 | inconclusive: 1.78 µM [inhibitor, partial curve, poor fit] |  |
| COC(=O)c1nc(-c2ccc3c(n2)C(=O)C(N)=C(OC)C3=O)c(N)c(-c2ccc(OC)c(OC)c2O)c1C | active: 14.1 µM |  |
| NC(Cc1ccc(Cl)cc1)c1csc(Nc2ccccn2)n1 (stereo not given) | inconclusive: 15.8 µM [inhibitor, partial curve] |  |
| CC12CCC(O)CC1CCC1C2CCC2(C)C(C3=CC(=O)OC3)C(O)CC12O (stereo not given) |  | inactive: 42.2% |
| CNC(=O)Nc1ccc(C(=O)N/N=C\C23CC[C@@H](O)CC2(O)CC[C@@H]2[C@@H]3CCC3(C)C(C4=CC(=O)OC4)CCC23O)cc1 (stereo not given in full) |  | inactive: -18.2% |
| C[C@]12CC[C@H](O)C[C@H]1CC[C@@H]1C2CC[C@]2(C)[C@@H](C3=CC(=O)OC3)[C@@H](O)C[C@]12O (stereo not given in full) |  | inactive: -13.9% [at 11.4 µM] |
| CC(=O)OC1(C)CC(C)C(=O)C(C(O)CC2CC(=O)NC(=O)C2)C1 (stereo not given) | active: 0.126 µM |  |
| O=C(Nc1ccc(OC(=O)N2CCCCC2)cc1)N1CCOCC1 | inconclusive: 10 µM [inhibitor, partial curve, poor fit] |  |
| N[C@@H](Cc1ccc(N(CCCl)CCCl)cc1)C(=O)O | inconclusive: 2.24 µM [inhibitor, full curve, poor fit] |  |
| CN1C(=O)NC(=O)/C(=C\C=C\c2ccccc2[N+](=O)[O-])C1=O | inconclusive: 39.8 µM [inhibitor, single point] |  |
| CCCCC(=O)N/N=C/c1c(O)n(Cc2ccc(F)cc2)c(=O)[nH]c1=O | inconclusive: 17.8 µM [inhibitor, partial curve] |  |
| C#CCCC[C@@H]1OC(=O)CNC(=O)C([C@@H](C)CC)NC(=O)[C@@H]2CCCN2C(=O)C([C@@H](C)CC)OC(=O)[C@H](Cc2ccccc2)N(C)C(=O)[C@H](C(C)C)NC(=O)C1(C)C (stereo not given in full) | inconclusive: 22.4 µM [inhibitor, partial curve, poor fit] |  |
| C=Cc1cc(OC)c2c(c1)c(=O)oc1c2cc(OC)c2c(O)ccc(C3OC(C)C(O)C(C)(O)C3O)c21 (stereo not given) | inconclusive: 1.58 µM [inhibitor, full curve, poor fit] |  |
| Nc1c(C(=O)NCCc2ccccc2)c2nc3ccccc3nc2n1CCN1CCOCC1 | inconclusive: 35.5 µM [inhibitor, single point] |  |
| CN1C2CCC1/C(=C/c1ccccn1)C(=O)/C2=C\c1ccccn1 | inconclusive: 2 µM [inhibitor, partial curve, poor fit] |  |
| COC(=O)C(O)(c1ccc(NC(=S)NC(=O)c2ccc(Cl)cc2Cl)c(C)c1)C(F)(F)F (stereo not given) | inconclusive: 5.01 µM [inhibitor, single point] |  |
| c1ccc2sc(N3CCNCC3)nc2c1 |  | inactive: -25.2% |
| COC1C(O)C(C)OC(OC2CCC3(C)C(CCC4C3C(O)CC3(C)C(C5=CC(=O)OC5)CCC43O)C2)C1O (stereo not given) |  | inactive: -8.96% |
| C[C@H]1C[C@@H](C)C(=O)[C@@H]([C@H](O)CC2CC(=O)NC(=O)C2)C1 | active: 0.282 µM |  |
| O=[N+]([O-])c1oc2ccc3ccccc3c2c1CCO | inconclusive: 20 µM [inhibitor, partial curve, poor fit] |  |
| NC(Cc1ccc(F)cc1)c1csc(Nc2ccccn2)n1 (stereo not given) |  | inactive: -4.04% |
| COc1cccc2c1C(=O)c1c(O)c3c(c(O)c1C2=O)CC(O)(C(C)=NO)CC3OC1CC(N)C(O)C(C)O1 (stereo not given) | inconclusive: 1.78 µM [inhibitor, full curve, poor fit] |  |

| SMILES | Potency | activity change, negative = inhibition |
| --- | --- | --- |
| O=C(CSC1c2ccccc2-c2ccccc21)N/N=C/c1ccccc1O | active: 3.16 µM |  |
| c1ccc(CNc2c3c(nc4ccccc24)CCC3)cc1 | inconclusive: 22.4 µM [inhibitor, single point] |  |
| COc1cc2c(ccc3c4cc(OC)c(OC)cc4c[n+](C)c23)cc1O | inconclusive: 5.01 µM [inhibitor, partial curve] |  |
| Cc1c2ccncc2c(C)c2c1[nH]c1ccccc12 | active: 5.01 µM |  |
| CCCCc1ccc2[nH]cc(CCN)c2c1 | inconclusive: 3.16 µM [inhibitor, single point] |  |
| CCCCn1c(=O)c(C(=O)Nc2ccccc2S(N)(=O)=O)c(O)c2ccccc21 | inconclusive: 39.8 µM [inhibitor, single point] |  |
| Cc1cccc(C)c1-n1nnnc1C(c1cc2ccccc2o1)N1CCC(n2c(=O)[nH]c3ccccc32)CC1 (stereo not given) | active: 8.91 µM |  |
| Cc1ccc(N2C(=O)NC(=O)/C(=C/C=C/c3ccco3)C2=O)cc1 |  | inactive: 82.1% [at 11.4 µM] |
| Cc1cccc(-n2c(/C=C/c3ccc([N+](=O)[O-])o3)nc3ccccc3c2=O)c1 | inconclusive: 39.8 µM [inhibitor, single point] |  |
| CCC1CN2CCc3cc(OC)c(OC)cc3C2CC1CC1NCCc2c1[nH]c1ccc(O)cc21 (stereo not given) | active: 0.0891 µM |  |
| COc1ccc(C[C@H]2NC[C@H](O)[C@H]2OC(C)=O)cc1 | active: 0.0631 µM |  |
| Oc1c(Cl)cccc1Cc1cc(Cl)cc(Cl)c1O | inconclusive: 3.55 µM [inhibitor, full curve] |  |
| CC1OC(OC2C(O)CC(OC3C(O)CC(OC4CCC5(C)C(CCC6C5CCC5(C)C(C7=CC(=O)OC7)C(O)CC65O)C4)OC3C)OC2C)CC(O)C1O (stereo not given) |  | inactive: -15% |
| C1=NCCc2c1[nH]c1ccccc21 |  | inactive: 110% [at 11.4 µM] |
| C[C@H]1CCC[C@H](O)CCCCCc2cc(O)cc(O)c2C(=O)O1 |  | inactive: 13.6% [at 11.4 µM] |
| CCn1c(O)c(/C=N/NC(=O)c2ccccc2)c(=O)n(CC)c1=S |  | inactive: -28.6% |
| COc1ccc(N=Cc2c(O)n(-c3ccc(C)cc3)c(=O)[nH]c2=O)cc1 |  | inactive: -14.8% |
| CCCCCCC(=O)N/N=C/c1c(O)n(CCCC)c(=S)[nH]c1=O | active: 12.6 µM |  |
| CSCCC(c1nnnn1-c1c(C)cccc1C)N1CCC2(CC1)C(=O)NCN2c1ccccc1 (stereo not given) | active: 28.2 µM |  |
| CCC(C)(O)C(=O)OC1C(=O)OC2CC3C(C)=CC(=O)C(O)C3(C)C3C4(O)OCC23C1C(C)C4O (stereo not given) | active: 0.316 µM |  |
| CN1CN(c2ccccc2)C2(CCN(CCCSc3ccccc3NC(=O)/C=C/c3ccccc3)CC2)C1=O | inconclusive: 35.5 µM [inhibitor, single point] |  |
| COc1ccc2c(c1)C(c1ccc(N(CCCl)CCCl)cc1)=NCC2 | active: 22.4 µM |  |

| SMILES | Potency | activity change, negative = inhibition |
| --- | --- | --- |
| CC(=O)OC(C)(C)/C=C/C(=O)C(C)(O)C1[C@H](O)C[C@@]2(C)C3CC=C4C(CC[C@@H](O)C4(C)C)[C@]3(CO)C(=O)C[C@]12C (stereo not given in full) | inconclusive: 39.8 µM [inhibitor, single point] |  |
| COc1ccc(CCNC(=O)c2c(N)n(CCN3CCOCC3)c3nc4ccccc4nc23)cc1 | inconclusive: 28.2 µM [inhibitor, single point] |  |
| COc1ccc(CCNCc2ccc(F)cc2)cc1OC |  | inactive: -5.47% [at 11.4 µM] |
| CCCCN=C[C@]12CCC(O)CC1(O)CCC1[C@@H]2CC[C@]2(C)[C@H](C3C=CC(=O)O3)CCC12O (stereo not given in full) |  | inactive: 12.4% |
| CC(C)c1oc(=O)cc2c1[C@@H](O)[C@H]1OC(=O)[C@@]3(C)CC[C@@H](O)[C@@]2(C)C13 (stereo not given in full) | inconclusive: 4.47 µM [inhibitor, single point] |  |
| C[C@@H]1O[C@@H](O[C@@H]2C=C3CC[C@@H]4C(CC[C@]5(C)[C@@H](c6ccc(=O)oc6)CC[C@]45O)[C@@]3(C)CC2)[C@H](O)[C@H](O)[C@H]1O (stereo not given in full) |  | inactive: -13.5% |
| CCOC(=O)c1c(N)n(CCN2CCCCC2)c2nc3ccccc3nc12 |  | inactive: -22.5% |
| CCC(C)OC(=O)c1c(N)n(Cc2cccs2)c2nc3ccccc3nc12 (stereo not given) | active: 17.8 µM |  |
| CCCCCn1c(=O)c(C(=O)NCc2ccccn2)c(O)c2ccccc21 | inconclusive: 3.55 µM [inhibitor, single point] |  |
| COC12C(COC(N)=O)C3=C(C(=O)C(C)=C(N)C3=O)N1CC1C2N1C (stereo not given) | inconclusive: 7.94 µM [inhibitor, full curve, poor fit] |  |
| CCC(C)N1C(=O)/C(=C\c2cnc(N(C)C)nc2)C(=O)NC1=S (stereo not given) |  | inactive: -6.13% |
| CC(=O)OC1CC2(O)C3CCC4CC(O)CCC4(C)C3CCC2(C)C1C1=CC(=O)OC1 (stereo not given) |  | inactive: -13.9% |
| O=c1[nH]c2ccccc2n1C1CCN(C(c2cc3ccccc3o2)c2nnnn2-c2ccc3c(c2)OCCO3)CC1 (stereo not given) | inconclusive: 2.82 µM [inhibitor, partial curve, poor fit] |  |
| N#Cc1ncc(N=Cc2ccc(N(CCCl)CCCl)cc2)s1 | inconclusive: 2.51 µM [inhibitor, full curve] |  |
| Cc1nc2cc(-c3ccccc3)nn2c(C)c1CCC(=O)N1CCC2(CC1)OCCO2 | inconclusive: 3.98 µM [inhibitor, partial curve] |  |
| CCCCC(=O)N/N=C/c1c(O)n(CCC2=CCCCC2)c(=O)[nH]c1=O | active: 10 µM |  |
| Cc1cc(N(CCCl)CCCl)ccc1C=NNC(=O)c1cccnc1 | inconclusive: 2.51 µM [inhibitor, full curve, poor fit] |  |
| O=C1NC(=O)N(CCc2ccc(F)cc2)C(=O)/C1=C/C=C/c1ccccc1 | inconclusive: 39.8 µM [inhibitor, single point] |  |
| COC1C(O)C(C)OC(OC2C(Oc3cccc4c(O)c5c(=O)oc6ccc(C)c7c(=O)oc(c34)c5c67)OC(C)C(O)C2O)C1O (stereo not given) |  | inactive: -15.7% [at 11.4 µM] |
| COc1cccc2c1cc([N+](=O)[O-])c1c(C(=O)O)cc3c(c12)OCO3 |  | inactive: 6.44% |
| CC12CCC3C(CCC4(O)CC(O)CCC34C=NO)C1(O)CCC2C1=COC(=O)C1 (stereo not given) |  | inactive: -13.2% |
